According to PubChem BioAssay (NCI):
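Grown in 96-well plates, cells were treated for 48 hours with each compound at five concentrations. Insufficient inhibition: endpoint recorded as highest concentration tested. The concentration for 50% growth inhibition is given as GI50.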 Certain results were filed several times, with different values. This is not the full list of results. There may be further records. For part of these data: A record mostly stands for its own series of concentrations, which the source does not state; some values may only mark the edge of a range. Records carry a tag for their origin. The letters are not those of the source and start again with each entry. For part of these data: Results that share an entry repeat one measurement across runs, samples, wells, individuals or studies.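 TGI: total growth inhibition.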

How the values were obtained:
Test in all cases: growth of human tumour cells (NCI), 48 h
OVCAR-4 ovarian = tested on: OVCAR-4 ovarian
KM20L2 colon = tested on: KM20L2 colon
786-0 renal = tested on: 786-0 renal
HOP-92 NSCLC = tested on: HOP-92 NSCLC
MDA-N = tested on: MDA-N
CAKI-1 renal = tested on: CAKI-1 renal
CCRF-CEM leukemia = tested on: CCRF-CEM leukemia
HCT-116 colon = tested on: HCT-116 colon
BT-549 breast = tested on: BT-549 breast
MOLT-4 leukemia = tested on: MOLT-4 leukemia
NCI-H23 lung = tested on: NCI-H23 lung
M14 melanoma = tested on: M14 melanoma
SNB-75 CNS = tested on: SNB-75 CNS
KM12 colon = tested on: KM12 colon
SW-620 colon = tested on: SW-620 colon
T-47D breast = tested on: T-47D breast
RXF 393 renal = tested on: RXF 393 renal
SK-MEL-2 melanoma = tested on: SK-MEL-2 melanoma
MCF7 breast = tested on: MCF7 breast
NCI/ADR-RES ovarian = tested on: NCI/ADR-RES ovarian
SF-295 CNS = tested on: SF-295 CNS
OVCAR-8 ovarian = tested on: OVCAR-8 ovarian
UACC-62 melanoma = tested on: UACC-62 melanoma
SK-MEL-5 melanoma = tested on: SK-MEL-5 melanoma
HS 578T breast = tested on: HS 578T breast
MDA-MB-435 = tested on: MDA-MB-435
UO-31 renal = tested on: UO-31 renal
SK-MEL-28 melanoma = tested on: SK-MEL-28 melanoma
DU-145 prostate = tested on: DU-145 prostate
SR leukemia = tested on: SR leukemia
SN12C renal = tested on: SN12C renal
OVCAR-3 ovarian = tested on: OVCAR-3 ovarian
MDA-MB-231 breast = tested on: MDA-MB-231 breast
K-562 leukemia = tested on: K-562 leukemia
NCI-H226 lung = tested on: NCI-H226 lung
RPMI-8226 leukemia = tested on: RPMI-8226 leukemia
U251 CNS = tested on: U251 CNS
COLO 205 colon = tested on: COLO 205 colon
NCI-H460 lung = tested on: NCI-H460 lung

Q: Which TGI (OVCAR-4 ovarian) does the source give for `CC(=O)OCC1OC(n2c(=S)n(-c3ccccc3)c(=O)c3cc(Br)cc(Br)c32)C(OC(C)=O)C(OC(C)=O)C1OC(C)=O` (centres undefined) here?
A: 8.37 µM [sample A, 1 test] and > 100 µM [sample B, 1 test]

Q: And the GI50 (KM20L2 colon)?
A: 6.75 µM [sample A, 1 test] and > 100 µM [sample B, 1 test]

Q: With `Nc1nc(=S)c2[nH]cnc2[nH]1` as the molecule, how does the TGI (786-0 renal) read?
A: 108 µM, 39.1 µM [sample A] and 8.23 µM [sample B]

Q: What about the GI50 (HOP-92 NSCLC) of the same molecule?
A: 1.77 µM [sample A, 1 test] and 1.62 µM [sample A, mean of 2 tests] and 154 nM [sample B, 1 test]

Q: And the TGI (MDA-N)?
A: 6.18 µM, 29.8 µM, > 250 µM

Q: What about the TGI (CAKI-1 renal) of the same molecule?
A: 1.9 µM, 19.7 µM, 49.2 µM [sample A] and 2.3 µM [sample B]

Q: What about the TGI (CCRF-CEM leukemia) of the same molecule?
A: 31 µM, 835 nM [sample A] and > 100 µM [sample B]

Q: And the TGI (HCT-116 colon)?
A: 16.2 µM, 16.8 µM, 1.68 µM [sample A] and 9.03 µM [sample B]

Q: What about the TGI (BT-549 breast) of the same molecule?
A: 28.4 µM, 176 µM, 14.6 µM [sample A] and > 100 µM [sample B]

Q: What about the TGI (MOLT-4 leukemia) of the same molecule?
A: 17.3 µM and 739 nM

Q: And the TGI (NCI-H23 lung)?
A: 28.6 µM, 24.7 µM, 10.2 µM [sample A] and > 35.7 µM [sample B]

Q: And the TGI (M14 melanoma)?
A: 46.1 µM, 14.6 µM, 69.9 µM [sample A] and 6.05 µM [sample B]

Q: And the GI50 (SNB-75 CNS)?
A: 1.04 µM [sample A, 1 test] and 4.25 µM [sample A, mean of 2 tests] and 405 nM [sample B, mean of 2 tests]

Q: What about the TGI (KM12 colon) of the same molecule?
A: 27.5 µM, 31.4 µM, 125 µM [sample A] and > 25.7 µM [sample B]

Q: And the TGI (SW-620 colon)?
A: 141 µM, 3.19 µM [sample A] and > 100 µM [sample B]

Q: What about the TGI (T-47D breast) of the same molecule?
A: 34.6 µM, 108 µM, 47.6 µM [sample A] and 30.7 µM [sample B]

Q: And the TGI (RXF 393 renal)?
A: 8.83 µM, 8.62 µM, 16.8 µM [sample A] and 5.08 µM [sample B]

Q: What about the TGI (SK-MEL-2 melanoma) of the same molecule?
A: 7.56 µM, 11.8 µM, > 180 µM [sample A] and 6.98 µM [sample B]

Q: And the TGI (MCF7 breast)?
A: 6.22 µM, 57.6 µM, > 102 µM [sample A] and 22.5 µM [sample B]

Q: And the TGI (NCI/ADR-RES ovarian)?
A: 14.1 µM, 44 µM, 15.5 µM [sample A] and > 59.5 µM [sample B]

Q: What about the TGI (SF-295 CNS) of the same molecule?
A: 177 µM, > 250 µM [sample A] and 909 nM [sample B]

Q: And the TGI (OVCAR-8 ovarian)?
A: 49.3 µM, 60.9 µM, 11.4 µM [sample A] and > 100 µM [sample B]

Q: And the TGI (UACC-62 melanoma)?
A: 1.71 µM, 4.96 µM, > 49.3 µM [sample A] and 1.55 µM [sample B]

Q: And the TGI (SK-MEL-5 melanoma)?
A: 18.9 µM, 16.9 µM, 31 µM [sample A] and 5.09 µM [sample B]

Q: What about the TGI (HS 578T breast) of the same molecule?
A: 81.3 µM, 147 µM, > 171 µM [sample A] and > 100 µM [sample B]

Q: What about the TGI (MDA-MB-435) of the same molecule?
A: 10.5 µM, 39.1 µM, 2.18 µM [sample A] and 9.8 µM [sample B]

Q: And the TGI (UO-31 renal)?
A: 17.4 µM, 35.7 µM, 722 nM [sample A] and 31.5 µM [sample B]

Q: `Cc1ccnc(Nc2ccc([N+](=O)[O-])c(NCCN3CCOCC3)n2)c1` was tested. Which GI50 (SK-MEL-28 melanoma) did it give?
A: 179 nM and 12.7 µM

Q: And the TGI (HCT-116 colon)?
A: 278 nM and > 100 µM

Q: What about the TGI (KM12 colon) of the same molecule?
A: 434 nM and 14.5 µM

Q: And the TGI (DU-145 prostate)?
A: 454 nM and > 100 µM

Q: `O=NN(CCCl)C(=O)NC1CCCCC1` was tested. Which TGI (SR leukemia) did it give?
A: 5.79 µM [1 test] and 88.7 µM [mean of 5 tests]

Q: `CCC(=C/[C@H](C)C/C=C/C(C)=C/[C@@H](C)C(=O)[C@@H](C)[C@H](O)[C@@H](C)CC)/C=C/[C@H]1CC=CC(=O)O1` was tested. Which TGI (SN12C renal) did it give?
A: 1.26 µM and 14.7 µM

Q: What about the TGI (OVCAR-3 ovarian) of the same molecule?
A: < 1.2 nM and 1.4 µM

Q: What about the TGI (MOLT-4 leukemia) of the same molecule?
A: < 1.2 nM and > 100 µM

Q: And the TGI (MDA-MB-231 breast)?
A: < 1.2 nM and 9.21 µM

Q: What about the TGI (K-562 leukemia) of the same molecule?
A: 1.58 µM and > 100 µM

Q: What about the TGI (NCI-H226 lung) of the same molecule?
A: 1.72 µM and 106 nM

Q: What about the TGI (KM12 colon) of the same molecule?
A: 5.13 µM and 162 nM

Q: What about the TGI (RPMI-8226 leukemia) of the same molecule?
A: 23.5 nM and > 100 µM

Q: And the TGI (SR leukemia)?
A: < 1.2 nM and > 100 µM

Q: What about the TGI (UO-31 renal) of the same molecule?
A: 127 nM and 12 µM

Q: `CC(C)=CCCC1(C)C2COC(=O)C21` (centres undefined) was tested. Which GI50 (K-562 leukemia) did it give?
A: > 100 µM [sample A, 1 test] and 5.89 µM [sample B, 1 test]

Q: And the GI50 (RPMI-8226 leukemia)?
A: > 100 µM [sample A, 1 test] and 490 nM [sample B, 1 test]

Q: What does the source list for `C=C(Cl)[C@@](Cl)(CBr)CC[C@@H](Br)C(C)(C)Cl`?
A: TGI (SK-MEL-28 melanoma): > 100 µM and 1.47 µM; TGI (MDA-N): 20.5 µM and 1.19 µM; TGI (MDA-MB-231 breast): 50.3 µM and 568 nM; TGI (SNB-75 CNS): 19.2 µM and 885 nM; TGI (SW-620 colon): > 100 µM and 731 nM; TGI (U251 CNS): 23.5 µM and 333 nM; TGI (NCI/ADR-RES ovarian): 24.4 µM and 1.2 µM; TGI (OVCAR-8 ovarian): 21.6 µM and 1.17 µM; TGI (COLO 205 colon): > 100 µM and 1.5 µM; TGI (NCI-H460 lung): 4.39 µM and 210 nM
